Measured values reported in the BET-seq Pho4 binding data (Le et al. 2018).
This is one part of the list. These are noisy estimates, calculated here from bound and input reads.

target: T1, Pho4 (S. cerevisiae) (UniProt P07270); assay: relative binding free energy (BET-seq); higher = weaker binding; conditions: reference: library average
T1 sequence: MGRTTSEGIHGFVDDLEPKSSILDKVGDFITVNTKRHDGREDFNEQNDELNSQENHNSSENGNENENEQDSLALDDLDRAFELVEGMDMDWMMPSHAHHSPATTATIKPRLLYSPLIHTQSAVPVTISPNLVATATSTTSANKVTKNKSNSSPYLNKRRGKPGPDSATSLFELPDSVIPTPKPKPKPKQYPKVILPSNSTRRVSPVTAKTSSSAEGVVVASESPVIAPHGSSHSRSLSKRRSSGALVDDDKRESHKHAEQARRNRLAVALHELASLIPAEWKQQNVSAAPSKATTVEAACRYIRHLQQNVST

Row | Sequence | relative binding free energy
1 | GTTGGCACGTGTTCAT | 0.335 kJ/mol
2 | AAGGGCACGTGACTGT | -0.0418 kJ/mol
3 | ATTGTCACGTGGAGTG | 0.251 kJ/mol
4 | CGGTACACGTGTGCGT | 0.377 kJ/mol
5 | GTTTGCACGTGGGGAG | -0.167 kJ/mol
6 | TTGTCCACGTGATGTG | 1.26 kJ/mol
7 | ATTGGCACGTGGAGCG | -0.293 kJ/mol
8 | GCGTTCACGTGATTGG | 1.84 kJ/mol
9 | TGAGACACGTGATATT | 0.335 kJ/mol
10 | TTAGGCACGTGAAAAA | 0.544 kJ/mol
11 | AGGTGCACGTGATAAG | 0.46 kJ/mol
12 | TTTAGCACGTGTATAT | -0.251 kJ/mol
13 | GAGTTCACGTGGGGCT | 0.628 kJ/mol
14 | TGTGGCACGTGTATAT | -0.251 kJ/mol
15 | GGATTCACGTGAGGAT | 1.76 kJ/mol
16 | TGTCGCACGTGGAGGC | -0.126 kJ/mol
17 | TGGGGCACGTGCTGCT | -0.92 kJ/mol
18 | GTGGGCACGTGGTAGG | -0.418 kJ/mol
19 | GGGTGCACGTGCCAGT | 0.0418 kJ/mol
20 | TGATGCACGTGCGTAA | -0.251 kJ/mol
21 | TGAAGCACGTGGGGCT | -0.753 kJ/mol
22 | CTAGACACGTGGAGGT | 0 kJ/mol
23 | CGTTACACGTGCTGGT | 0.46 kJ/mol

Row | Sequence | relative binding free energy
24 | GTTTTCACGTGTCTTG | 1.8 kJ/mol
25 | AGGAACACGTGAGAGT | 0.795 kJ/mol
26 | AGTATCACGTGCGGTA | 0.335 kJ/mol
27 | ATAGGCACGTGTCGTT | -0.418 kJ/mol
28 | CTTTACACGTGTCTGT | 0.46 kJ/mol
29 | TGCGTCACGTGGAAGA | 0.335 kJ/mol
30 | GGGTGCACGTGTTCCG | 0.544 kJ/mol
31 | GTTAACACGTGGTTGT | 0.418 kJ/mol
32 | AGTTGCACGTGTGAGG | 0.502 kJ/mol
33 | TAGGTCACGTGTTGTA | 0.46 kJ/mol
34 | AGAATCACGTGGAGGG | 0.753 kJ/mol
35 | TGGGTCACGTGTTGGT | 0.92 kJ/mol
36 | GGGGTCACGTGTGGAT | 1 kJ/mol
37 | CTATTCACGTGGTGGA | 0.753 kJ/mol
38 | GTGGGCACGTGATTTC | 0 kJ/mol
39 | CTTGGCACGTGTTAAA | 0.126 kJ/mol
40 | CGATTCACGTGTATTT | 0.669 kJ/mol
41 | GTGGGCACGTGCTGTA | -0.837 kJ/mol
42 | GTTGACACGTGGGATC | -0.0418 kJ/mol
43 | AGATTCACGTGATGGA | 1.38 kJ/mol
44 | TTAGACACGTGTCAGG | 0.251 kJ/mol
45 | TATCGCACGTGTAATT | 0.544 kJ/mol
46 | TCGTTCACGTGGAGTG | 0.711 kJ/mol

Row | Sequence | relative binding free energy
47 | GCGTGCACGTGTCAGG | -0.251 kJ/mol
48 | GGTGCCACGTGCTGTT | -0.377 kJ/mol
49 | TCGATCACGTGGGTTG | 0.293 kJ/mol
50 | TGTAGCACGTGTTTCA | -0.209 kJ/mol
51 | CGCAGCACGTGAGGGT | 0.335 kJ/mol
52 | AGGTGCACGTGGTTGG | -0.251 kJ/mol
53 | AATTTCACGTGGGACG | 1 kJ/mol
54 | AAAGGCACGTGCGTAG | -0.335 kJ/mol
55 | CTTATCACGTGTTGGT | 0.502 kJ/mol
56 | GTTTACACGTGCGGGG | 0.711 kJ/mol
57 | GAGGACACGTGGTAGT | 0.502 kJ/mol
58 | AGGCGCACGTGGTATA | -0.753 kJ/mol
59 | GCATTCACGTGGATGT | 0.92 kJ/mol
60 | TTGCTCACGTGCGGTT | 0.879 kJ/mol
61 | TTGTTCACGTGACCTG | 1.84 kJ/mol
62 | GGTGTCACGTGAGAAT | 0.879 kJ/mol
63 | TGGAGCACGTGTTTGG | 0.126 kJ/mol
64 | GAAGGCACGTGAATGT | 0.795 kJ/mol
65 | ACTGGCACGTGGATTG | -0.293 kJ/mol
66 | TTAAACACGTGTTGGG | -0.167 kJ/mol
67 | CGTAACACGTGTTGTG | -0.544 kJ/mol
68 | TCGGTCACGTGGGAGC | 0.46 kJ/mol
69 | ATGATCACGTGTTATA | 0.0837 kJ/mol

Row | Sequence | relative binding free energy
70 | TCATTCACGTGTAAGG | 1 kJ/mol
71 | AAGCGCACGTGGGTGC | -0.711 kJ/mol
72 | TTGAACACGTGGCGTT | -0.251 kJ/mol
73 | TTACACACGTGGGGTT | -0.669 kJ/mol
74 | TTTACCACGTGGTGGA | -0.502 kJ/mol
75 | TAATGCACGTGAGAGT | 0.669 kJ/mol
76 | GGGGACACGTGAGTCT | 1.05 kJ/mol
77 | TGTCACACGTGTTTTA | 0.251 kJ/mol
78 | GGGAGCACGTGGGCCG | -0.669 kJ/mol
79 | TATGTCACGTGCTTTT | 0.0418 kJ/mol
80 | GCGGGCACGTGGGTCA | -0.962 kJ/mol
81 | TTTATCACGTGTTTCA | 0.377 kJ/mol
82 | ATTGTCACGTGTCGTA | 0.544 kJ/mol
83 | GGATGCACGTGGTGTC | -0.0418 kJ/mol
84 | TTCGTCACGTGAGTGA | 0.711 kJ/mol
85 | GGGAGCACGTGGTCTT | -0.46 kJ/mol
86 | GGTGACACGTGGAATT | 0.92 kJ/mol
87 | GTGGTCACGTGGCTTG | 0.377 kJ/mol
88 | AGGGGCACGTGTCTTT | -0.837 kJ/mol
89 | CTAGTCACGTGTGTGT | 0.335 kJ/mol
90 | CGGTTCACGTGTGCAT | 1.76 kJ/mol
91 | TAGATCACGTGTGAAG | 1.38 kJ/mol
92 | GTGAGCACGTGGTTTT | -0.377 kJ/mol

Row | Sequence | relative binding free energy
93 | TTTTGCACGTGTTTTC | 0.669 kJ/mol
94 | CGGTGCACGTGAAGGT | 1.05 kJ/mol
95 | CCTAGCACGTGTTGGG | 0.0837 kJ/mol
96 | AGGTTCACGTGCGGTA | 1.21 kJ/mol
97 | ATGGTCACGTGGTTCT | 0.46 kJ/mol
98 | TTAATCACGTGCTGAT | 0.837 kJ/mol
99 | AGGGGCACGTGGGCGC | -1.17 kJ/mol
100 | AGTTGCACGTGACGGG | 0.335 kJ/mol
101 | CTAGGCACGTGGAAGG | -0.92 kJ/mol
102 | GTCCGCACGTGGGATG | -0.167 kJ/mol
103 | TCGGGCACGTGTGCTT | -0.126 kJ/mol
104 | TGATGCACGTGAGATG | 0.837 kJ/mol
105 | GAGTTCACGTGGTCGG | 1.34 kJ/mol
106 | TTGGTCACGTGGCAGC | 0.167 kJ/mol
107 | GTTTACACGTGAATAG | 1.88 kJ/mol
108 | ATTATCACGTGTAGTA | 0.586 kJ/mol
109 | AGTAACACGTGTTGTG | -0.0837 kJ/mol
110 | GGTCTCACGTGGTCGT | 0.628 kJ/mol
111 | TGTACCACGTGATGTA | 0.335 kJ/mol
112 | TTTGGCACGTGGTCTT | -0.293 kJ/mol
113 | ATATTCACGTGGTATT | 0.377 kJ/mol
114 | TAAAGCACGTGGGTGC | -1 kJ/mol
115 | TTTTTCACGTGTGAGA | 1.13 kJ/mol
